The results in this text go back to PMC10668032.

Some of the results follow. At the low end of the ranking, values are background and their order means little.

This assay addresses SIX1-Q177R homeodomain (UniProt Q15475). Briefly: universal protein binding microarray. The note with it: Universal all-10-mer PBM (8x60K, AMADID 030236), 300 nM GST-tagged protein, Alexa Fluor 488 anti-GST; buffer, salt, pH and temperature not stated; high values mean tight binding; most listed sequences are background and not binding sites; double strand, one strand shown.
AAACGGGC: the binding signal is -0.0116 E-score.

In the case of CGACCGTA, the binding signal was 0.0687 E-score.

CCGCAACC: the binding signal was 0.136 E-score.

For the sequence AGCCTAAG, the binding signal is -0.235 E-score.

Turning to CGGTCATA, the binding signal was -0.155 E-score.

With AGTGAGAA, the binding signal is -0.156 E-score.

Regarding TGCGACCA, the binding signal is -0.151 E-score.

Regarding ACAGCGCG, the binding signal was -0.0663 E-score.

Take AAAAACGC: the binding signal is -0.129 E-score.

GGGGGTGA: the binding signal came out at 0.132 E-score.

For the sequence AAATCGAC, the binding signal was -0.165 E-score.

With AAAATAGG, the binding signal was -0.139 E-score.

On to AGATATTG, for which the binding signal was -0.021 E-score.

As to AGTCTCTG, the binding signal is -0.203 E-score.

As for ACAATTGA, the binding signal was determined as 0.101 E-score.

Turning to AGCAATTA, the binding signal is -0.219 E-score.

With GGTAAGTA, the binding signal was 0.131 E-score.

With TAGGCCCA, the binding signal is -0.229 E-score.

AAAGGTTC: the binding signal is -0.16 E-score.

Regarding ACCTACCC, the binding signal came to 0.252 E-score.

Regarding AAGACAAG, the binding signal stood at 0.0174 E-score.

As for AACTTAGG, the binding signal was -0.16 E-score.

Take TATCCTAA: the binding signal is -0.08 E-score.

Regarding ACCTCGCT, the binding signal is -0.019 E-score.

Turning to CAGTAGAC, the binding signal was -0.0563 E-score.

As to GCACCTAA, the binding signal was 0.024 E-score.

On to ACACAGTC, for which the binding signal is -0.00681 E-score.

For the sequence CCGACGGA, the binding signal came out at 0.112 E-score.

With ACGTCTAC, the binding signal was -0.17 E-score.

Turning to AAGTACGT, the binding signal worked out at 0.00622 E-score.

AGGCAGTA: the binding signal was -0.14 E-score.

On to CTGCGGCC, for which the binding signal is -0.13 E-score.

GAATTTCA: the binding signal is -0.436 E-score.

As for CAAGCCTA, the binding signal is -0.0739 E-score.

Take AAGCAATA: the binding signal was -0.0126 E-score.

Take TACGTGGA: the binding signal was -0.168 E-score.

For the sequence GGTTTGCA, the binding signal is -0.0722 E-score.

In the case of CGCCCCGA, the binding signal was determined as 0.0506 E-score.

As to CCGATCAA, the binding signal is -0.149 E-score.

As to GACTAGAA, the binding signal was -0.0976 E-score.

As for GGATAGAA, the binding signal was -0.137 E-score.

Take TTCAACAA: the binding signal is -0.0323 E-score.

For the sequence CGTTTATC, the binding signal is -0.193 E-score.

For CTTTGGTA, the binding signal was -0.277 E-score.

For ATCGAAAT, the binding signal was -0.25 E-score.

On to AACTAAGT, for which the binding signal was -0.121 E-score.

CATAGCAG: the binding signal is -0.089 E-score.

With CCGGCAGG, the binding signal was found to be 0.0675 E-score.

CCCCGACA: the binding signal turned out to be 0.324 E-score.

As for AAGCAGAC, the binding signal was -0.235 E-score.

Consider ACATGATG, for which the binding signal is -0.171 E-score.

With AATGAAGG, the binding signal was -0.0395 E-score.

AAACCACT: the binding signal was -0.256 E-score.

As for GTTCGAGA, the binding signal is 0.0673 E-score.

Take CGCTCAAA: the binding signal was -0.0999 E-score.

As to AGCCCCCT, the binding signal was -0.101 E-score.

Regarding GGCGTTAA, the binding signal turned out to be 0.133 E-score.

As to AGCCAAGA, the binding signal is -0.126 E-score.

On to CCCAGTGC, for which the binding signal was 0.148 E-score.

AGTGTTAC: the binding signal stood at 0.387 E-score.

Turning to CCCCTCCC, the binding signal came out at 0.214 E-score.

For the sequence CCAAATCG, the binding signal was -0.134 E-score.

Consider CCGGACGC, for which the binding signal is 0.114 E-score.

For CAGCGCCC, the binding signal was -0.262 E-score.

Take ATGGGTTA: the binding signal was -0.0404 E-score.

Regarding CGGCGTGC, the binding signal is -0.00421 E-score.

Regarding GAGATCAC, the binding signal turned out to be 0.0799 E-score.

As for GTCTCCCA, the binding signal is -0.0425 E-score.

Take CCTTAGTC: the binding signal is -0.0754 E-score.

In the case of AGTGGCGA, the binding signal worked out at 0.0503 E-score.

Regarding CCGGTACA, the binding signal worked out at 0.224 E-score.

As to ACCGGAGA, the binding signal is 0.138 E-score.

On to GTAACCAC, for which the binding signal is -0.0259 E-score.

As to ATTAATGG, the binding signal was -0.0793 E-score.

For GAAAACTC, the binding signal was -0.149 E-score.

AATTCTGC: the binding signal is -0.163 E-score.

For CGAACGCG, the binding signal was -0.0372 E-score.

Turning to CGACGGGA, the binding signal is 0.0349 E-score.

For the sequence ACCGAACG, the binding signal is -0.00361 E-score.

Take CGCCGGAC: the binding signal turned out to be 0.0574 E-score.

As for AGCTGAAT, the binding signal was -0.187 E-score.

For GTCATGGA, the binding signal is -0.0938 E-score.

In the case of ACCCCTTA, the binding signal is 0.228 E-score.

Consider GAGGTAGC, for which the binding signal is -0.0637 E-score.

On to CGGGGGAA, for which the binding signal came out at 0.0166 E-score.

Take CCTAGAAC: the binding signal is -0.0143 E-score.

For CAGTTTAG, the binding signal was -0.0134 E-score.

ATCAACTA: the binding signal is -0.0013 E-score.

For the sequence AACGAGCC, the binding signal came to 0.0247 E-score.

For GCACAACC, the binding signal is -0.072 E-score.

Regarding ATAGTGTC, the binding signal was determined as 0.385 E-score.

Turning to CTGCACCA, the binding signal was 0.111 E-score.

For CGAACGTC, the binding signal is -0.2 E-score.

As to AGAGTTGG, the binding signal was -0.156 E-score.

With GTTACGGA, the binding signal was found to be 0.164 E-score.

GCACGACA: the binding signal turned out to be 0.21 E-score.

Turning to AACTCTAG, the binding signal was -0.0303 E-score.

For the sequence AGATACGC, the binding signal came to 0.0126 E-score.

For AGGTGCAA, the binding signal amounted to 0.169 E-score.

CCAGAGTA: the binding signal is 0.132 E-score.

On to ACGTTAGC, for which the binding signal is -0.0505 E-score.

As to CTACCCTC, the binding signal came out at 0.117 E-score.

As for GGTGGCAC, the binding signal stood at 0.031 E-score.

Regarding CTCAGGTC, the binding signal was -0.182 E-score.

As for GGAAAGGA, the binding signal came to 0.0716 E-score.

For the sequence GGCAAAAC, the binding signal is -0.206 E-score.

Turning to ACTTGGAG, the binding signal was -0.0342 E-score.

Take CGATTACC: the binding signal is 0.0967 E-score.

Regarding ACACACAT, the binding signal is 0.201 E-score.

Take CACTGGAG: the binding signal stood at 0.182 E-score.

Take ATGAGGTG: the binding signal is 0.304 E-score.

As for CCGTTCCC, the binding signal is -0.00604 E-score.

Turning to ACGTTCAC, the binding signal was -0.201 E-score.

On to GGTTCAAC, for which the binding signal was determined as 0.0843 E-score.

As for CACCCCAA, the binding signal was 0.336 E-score.

For CTAGCTTA, the binding signal was -0.222 E-score.

Take TGGTACAA: the binding signal is -0.0616 E-score.

CAGAGACC: the binding signal is -0.136 E-score.

Regarding CTCATCTA, the binding signal was -0.204 E-score.

Consider TGCAGGAA, for which the binding signal turned out to be 0.00358 E-score.

In the case of AAGGTTGC, the binding signal was -0.0264 E-score.

For ACAAATGG, the binding signal is -0.0491 E-score.

On to TGGGCGAA, for which the binding signal was -0.0954 E-score.

For CCGGCTAA, the binding signal turned out to be 0.0286 E-score.

With AATATCTG, the binding signal was -0.0578 E-score.

Take GCAGCTGA: the binding signal is -0.0176 E-score.

In the case of CGCCTCAA, the binding signal is -0.223 E-score.

As to CCTCGCCC, the binding signal is 0.212 E-score.

As to AAAGAGCA, the binding signal is -0.14 E-score.

For the sequence AGCGTACT, the binding signal is -0.0284 E-score.

Regarding CTTAGACC, the binding signal was -0.118 E-score.

Turning to AGCATCCA, the binding signal is -0.317 E-score.

For the sequence CACGCTCA, the binding signal amounted to 0.155 E-score.

As for CTGTGTAA, the binding signal came to 0.153 E-score.

Take ATGGTTAA: the binding signal is -0.113 E-score.

Consider GAACGAGC, for which the binding signal was 0.105 E-score.

On to ACGCCAAT, for which the binding signal was 0.0925 E-score.

Take GCCTTATA: the binding signal was -0.00245 E-score.

Regarding AATGCCAA, the binding signal is -0.153 E-score.

On to CCCGCGGC, for which the binding signal was 0.0154 E-score.

Regarding ACACTCTA, the binding signal turned out to be 0.367 E-score.

Turning to AAAATGTC, the binding signal is -0.286 E-score.

In the case of GGGGTGAA, the binding signal was 0.154 E-score.

As for CCAGGTCA, the binding signal was -0.0464 E-score.

For the sequence CAGCAAAC, the binding signal was -0.104 E-score.

As for AAGTTGCT, the binding signal was -0.303 E-score.

On to ACTTCCCA, for which the binding signal was -0.0837 E-score.

GACGCATA: the binding signal was -0.251 E-score.

Regarding GAGAGAGC, the binding signal was -0.153 E-score.

As to AGATGTGA, the binding signal is -0.00781 E-score.

Consider AGACGGGA, for which the binding signal was -0.0737 E-score.

On to GCCATAGA, for which the binding signal was -0.145 E-score.

As to TCGTGGCA, the binding signal is -0.169 E-score.

As for GCTCACAC, the binding signal came to 0.276 E-score.

With CCTCTAAA, the binding signal was -0.176 E-score.

Consider CTCCATCC, for which the binding signal was -0.128 E-score.

Take GTCGACAC: the binding signal turned out to be 0.414 E-score.

CCGGCTCC: the binding signal came out at 0.153 E-score.

Take CCATACAG: the binding signal was determined as 0.00526 E-score.

In the case of AGCCGGAT, the binding signal was -0.0554 E-score.

With CGCATGAG, the binding signal was -0.158 E-score.

With ACGTGTCC, the binding signal came to 0.347 E-score.

On to CACGTTCA, for which the binding signal turned out to be 0.158 E-score.

Regarding GGGATTAA, the binding signal is -0.0404 E-score.

Turning to CGATCCAC, the binding signal amounted to 0.238 E-score.

As for AGACCGGG, the binding signal is -0.17 E-score.

Turning to CCTATTGA, the binding signal is -0.0193 E-score.

Regarding CGGTATAA, the binding signal turned out to be 0.0747 E-score.

On to CGGTGGCC, for which the binding signal was -0.16 E-score.

Consider CTTTCTCA, for which the binding signal was -0.15 E-score.

CCTATAGG: the binding signal is -0.238 E-score.

As for AACCTTCA, the binding signal was -0.0173 E-score.
